Data published in PubChem BioAssay AID485294 (National Center for Advancing Translational Sciences (NCATS), 2010).
In all, about 370,000 compounds went through this assay and about 150 (0.041%) were called active. This list was built around the results that the source calls inconclusive (neither active nor inactive); the mix of calls is not that of the screen. The call rests on the fitted dose curve; in most records, active means well fitted inhibition curve with a large enough effect; inconclusive means small, poorly fitted or top-dose-only effect; inactive means flat fitted curve, though single readings scatter. No potency is given beside an inconclusive call; the fits are too rough.

target: Beta-lactamase (Escherichia coli (strain K12)) (UniProt P00811); assay: qHTS Inhibitors of AmpC Beta-Lactamase (assay with detergent); details: AmpC hydrolysis of nitrocefin, absorbance 480 nm, 0.01% Triton; series mostly up to 114 µM; further: nearly all actives have a fitted effect of over 25% in size
Outline: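 AmpC (5.3 nM in the dispensed reagent) in 20 mM phosphate pH 7.0 with 0.01% (detergent screen) or 0.0001% Triton X-100 was preincubated with compounds for 15 min at room temperature. Nitrocefin was then added from an 800 uM solution, and hydrolysis was followed at 480 nm.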
Potency means the concentration at half of the fitted maximal effect; tags describe the fitted curve by direction and shape.

Sequence of UniProt P00811 (P00811 whole entry, looked up): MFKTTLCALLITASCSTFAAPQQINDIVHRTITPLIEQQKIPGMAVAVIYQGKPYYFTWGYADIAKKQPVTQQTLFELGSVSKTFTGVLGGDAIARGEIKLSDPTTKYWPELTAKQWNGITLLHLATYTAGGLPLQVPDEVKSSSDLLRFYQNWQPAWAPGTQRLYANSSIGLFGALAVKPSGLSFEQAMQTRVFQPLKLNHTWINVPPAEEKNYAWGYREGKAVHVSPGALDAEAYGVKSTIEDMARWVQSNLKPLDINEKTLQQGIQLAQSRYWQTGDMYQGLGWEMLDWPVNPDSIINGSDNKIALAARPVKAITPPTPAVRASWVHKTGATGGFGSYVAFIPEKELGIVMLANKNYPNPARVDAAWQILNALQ

Structure (SMILES)	Potency
COc1ccc(S(=O)(=O)N2CCc3ccccc32)cc1C(=O)Nc1cccnc1	inconclusive [inhibitor, partial curve, poor fit]
Cc1ccccc1OCc1nc(C#N)c(N2CCCC2)o1	inconclusive [inhibitor, single point]
Cc1ccc(S(=O)(=O)n2ccc(-c3ccc(OCc4c(F)cccc4Cl)cc3)n2)cc1	inconclusive [inhibitor, partial curve, poor fit]
Cc1c(C(=O)Nc2c(F)cc(F)cc2Br)sc2ncn(CC(=O)N3CCCC3)c(=O)c12	inconclusive [inhibitor, full curve, poor fit]
CCOC(=O)CC1COc2ccccc2N1C(=O)c1ccc(F)cc1 (stereo unspecified)	inconclusive [inhibitor, full curve]
CCc1cc(C(=O)N/N=C/c2ccc(O)cc2O)c2ccccc2n1	inactive
CCOC(=O)Cn1nc(C)n(-c2ccc(Cl)cc2)c1=O	inconclusive [inhibitor, full curve, poor fit]
CS(=O)(=O)c1cccc(-c2csc(N3CCC(C(N)=O)CC3)n2)c1	inconclusive [inhibitor, full curve, poor fit]
O=C(Cn1ccc(NC(=O)OCc2ccccc2)nc1=O)NCCCN1CCCC1=O	inactive
COc1cc2c(cc1NC(=O)CCCN1C(=O)CCC1=O)oc1ccccc12	inconclusive [inhibitor, partial curve, poor fit]
CCN1C(=NCc2cc(OC)c(OC)c(OC)c2)N[C@@H](c2ccccc2)[C@H](C(=O)OC)[C@H]1C	inconclusive [inhibitor, full curve, poor fit]
O=C(CSC1=NS(=O)(=O)c2cc(F)ccc2N1)NCc1ccccc1Cl	inconclusive [inhibitor, full curve, poor fit]
Cc1cc(C(=O)NCc2cccs2)cs1	inconclusive [inhibitor, partial curve, poor fit]
N#Cc1c(-c2ccc(Br)cc2)cc(-c2cccnc2)nc1N	inactive
CCc1ccccc1NC(=O)c1sc(-n2nc(C)c(Cc3ccccc3)c2C)nc1C	inactive
CCN(Cc1ccccc1)C(c1cc2cc(C)ccc2[nH]c1=O)c1nnnn1CCOC (stereo unspecified)	inconclusive [inhibitor, partial curve, poor fit]
O=c1c(-c2ccccc2Cl)c[nH]n1-c1ccccc1	inconclusive [inhibitor, full curve]
CCOC(=O)C1CCCN(C(=O)c2cc(-c3ccncc3)nc3ccccc23)C1 (stereo unspecified)	inconclusive [inhibitor, partial curve]
CCCN(CCC)C(=O)COc1cc(=O)n(CC)c2ccccc12	inconclusive [inhibitor, full curve, poor fit]
CCOc1ccc2[nH]c(=O)c(CN(CCO)C(=O)CC)cc2c1	inconclusive [inhibitor, full curve, poor fit]
COc1ccccc1Cn1c(=O)[nH]c2cccnc21	inconclusive [inhibitor, full curve, poor fit]

Structure (SMILES)	Potency
CCn1c(SCC(=O)Nc2ccc(C)cc2)nnc1-c1ccc(O)cc1	inconclusive [inhibitor, full curve, poor fit]
Cc1ccc2[nH]c(=O)c(CN(Cc3ccccc3)C(=S)NCCCN(C)C)cc2c1	inactive
O=C1c2ccccc2C(=O)N1Cc1nc2ccccc2c(=O)n1Cc1ccco1	inactive
Cc1cccn2cc(CSc3ccccc3N)nc12	inconclusive [inhibitor, full curve, poor fit]
CCCCNC(=O)COC(=O)c1ccc(NC(C)=O)cc1	inconclusive [inhibitor, partial curve]
COc1cccc(NC(=O)c2ccc(CN3CCN(c4ccccc4)CC3)cc2)c1	inconclusive [inhibitor, partial curve, poor fit]
Cc1cc([N+](=O)[O-])ccc1NC(=O)c1csc(C)c1C	inconclusive [inhibitor, partial curve, poor fit]
COc1ccc(CC(=O)Nc2nc(-c3cc(OC)ccc3OC)cs2)cc1	inactive
COc1ccc(CCNC(=O)CSc2nc3[nH]ncc3c(=O)n2-c2ccccc2OC)cc1OC	inconclusive [inhibitor, full curve, poor fit]
O=C(Nc1ccc(F)cc1F)N1CCN(c2ncccn2)CC1	inconclusive [inhibitor, full curve]
COc1cccc(CN2C(=O)C(C)N(C(=O)c3ccccc3)c3ccccc32)c1 (stereo unspecified)	inconclusive [inhibitor, full curve, poor fit]
CCOCCCNC(=S)N(CCCN(C)C)Cc1cc2cc3c(cc2[nH]c1=O)OCCO3	inconclusive [inhibitor, partial curve, poor fit]
Cc1csc(NC(=O)CSc2nc(C)nc3c2c(=O)n(C)c(=O)n3C)n1	inconclusive [inhibitor, full curve, poor fit]
COc1cccc(CC2(CO)CCCN(Cc3ccc(-c4ccco4)cc3)C2)c1 (stereo unspecified)	inactive
CCOC(=O)N1CCN(S(=O)(=O)c2ccc(C(=O)N(CCCN(C)C)c3nc4c(C)c(C)ccc4s3)cc2)CC1	inconclusive [inhibitor, full curve, poor fit]
c1ccc(-c2nnc(-c3ccncc3)o2)cc1	inactive
COc1ccccc1NC(=O)C1=C(C)Nc2nc3ccccc3n2C1c1ccccc1Cl (stereo unspecified)	inactive
Cc1cc(Nc2nc3ccccc3nc2Cl)n(-c2ccc([N+](=O)[O-])cc2)n1	inactive
Cc1ccc(N/C(N)=N/c2nc(CSc3ccc(C)cc3)cc(=O)[nH]2)cc1	inconclusive [inhibitor, partial curve, poor fit]
Cc1cc(-c2ccccc2)nnc1NCCN1CCOCC1	inconclusive [inhibitor, partial curve, poor fit]
